Two compounds from PubChem BioAssay AID330 (DTP/NCI, 2004) can be followed below.

The test has as its system P388 leukemia ip, CD2F1 mice, survival T/C. The test is described as follows: NCI In Vivo Anticancer Drug Screen. Data for tumor model P388 Leukemia (intraperitoneal) in CD2F1 (CDF1) mice. As to conditions: endpoint: median survival time, higher = longer survival. How it is done: The antitumor activity of compounds was measured in mice bearing transplantable tumors. Survival or tumor size were measured and the results are expressed as the measurement made in the treated group (T) divided by the measurement made in the vehicle treated control group (C). The tumor model used in this assay is P388 Leukemia (intraperitoneal) in CD2F1 (CDF1) mice

“And” between values parts separate entries of the source, which are not always exact repeats. Equal entries are not always repeated. The source gives many values for each of these; only a part stands here. Toxic doses and inconclusive results are not listed.

With `N[C@H](C(=O)O)[C@@H]1CC(Cl)=NO1`, the T/C is 90 % of control (dose: 9.0 mg/kg/injection, schedule: Q01DX009 (ip), vehicle: saline); 94 % of control (dose: 10.0 mg/kg/injection, schedule: Q01DX009 (ip), vehicle: saline); 86 % of control (dose: 12.0 mg/kg/injection, schedule: Q01DX009 (ip), vehicle: saline); 93 % of control (dose: 16.0 mg/kg/injection, schedule: Q01DX005 (ip), vehicle: water); 83 % of control (dose: 20.0 mg/kg/injection, schedule: Q01DX009 (ip), vehicle: saline).
With `CO[C@H](C(=O)[C@@H](O)[C@@H](C)O)[C@@H]1Cc2cc3cc(OC4CC(OC5CC(O)C(O)C(C)O5)C(O)C(C)O4)c(C)c(O)c3c(O)c2C(=O)[C@H]1OC1CC(OC2CC(OC3CC(C)(O)C(O)C(C)O3)C(O)C(C)O2)C(O)C(C)O1` (some centres undefined), the T/C was 91 % of control (dose: 0.06 mg/kg/injection, schedule: Q01DX009 (ip), vehicle: saline); 122 % of control (dose: 0.1 mg/kg/injection, schedule: Q01DX009 (ip), vehicle: water); 121 % of control (dose: 0.13 mg/kg/injection, schedule: Q01DX005 (ip), vehicle: saline); 122 % of control and 96 % of control (dose: 0.13 mg/kg/injection, schedule: Q01DX009 (ip), vehicle: water); 123 % of control (dose: 0.2 mg/kg/injection, schedule: Q01DX009 (ip), vehicle: other); 122 % of control (dose: 0.25 mg/kg/injection, schedule: Q01DX009 (ip), vehicle: clinical formulation). The T/C is 122 % of control (dose: 0.25 mg/kg/injection, schedule: Q04DX003 (ip), vehicle: saline); 94 % of control (dose: 0.3 mg/kg/injection, schedule: Q01DX009 (ip), vehicle: water); 156 % of control (dose: 0.5 mg/kg/injection, schedule: Q01DX005 (ip), vehicle: saline); 96 % of control (dose: 0.5 mg/kg/injection, schedule: Q01DX009 (ip), vehicle: clinical formulation); 122 % of control (dose: 0.5 mg/kg/injection, schedule: Q08DX002 (ip), vehicle: saline); 56 % of control (dose: 0.8 mg/kg/injection, schedule: Q01DX009 (ip), vehicle: other). In addition, the T/C (dose: 1.0 mg/kg/injection, schedule: Q01DX009 (ip), vehicle: saline) is 151 % of control and the T/C (dose: 1.0 mg/kg/injection, schedule: Q04DX003 (ip), vehicle: saline) was 95 % of control.
